Test results: the supplement of paper PMC4967469

How the values were obtained:
Experiment in all cases: Viability of human cancer cell lines after 72 h of drug (GDSC screen)
Bicalutamide = compound: CC(O)(CS(=O)(=O)c1ccc(F)cc1)C(=O)Nc1ccc(C#N)c(C(F)(F)F)c1 [Bicalutamide]; conditions: top dose inferred
Procedure: (§1)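 Human cancer cell lines in 384-well plates, medium with 10% serum, drug for 72 h over a 256-fold dose range (nine 2-fold or five 4-fold steps up to the top dose). Adherent lines were fixed and stained with the nucleic acid dye Syto60, suspension lines read with resazurin; signal relative to control wells, capped at 0 and 100%. One two-parameter sigmoid per drug and line, fitted in a mixed model over all curves with the slope shared within a line.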

T0901317 = compound: O=S(=O)(c1ccccc1)N(CC(F)(F)F)c1ccc(C(O)(C(F)(F)F)C(F)(F)F)cc1 [T0901317]; conditions: top dose 10.24 µM; top dose inferred
Procedure: as §1

TW-37 = compound: CC(C)c1ccccc1Cc1cc(C(=O)Nc2ccc(S(=O)(=O)c3ccccc3C(C)(C)C)cc2)c(O)c(O)c1O [TW-37]; conditions: top dose 5 µM
Procedure: as §1

Gemcitabine = compound: Nc1ccn([C@@H]2O[C@H](CO)[C@@H](O)C2(F)F)c(=O)n1 [Gemcitabine]; conditions: top dose 1.024 µM
Procedure: as §1

AUY922 = compound: CCNC(=O)c1noc(-c2cc(C(C)C)c(O)cc2O)c1-c1ccc(CN2CCOCC2)cc1 [AUY922]; conditions: top dose 0.256 µM; top dose inferred
Procedure: as §1

LFM-A13 = compound: C/C(O)=C(\C#N)C(=O)Nc1cc(Br)ccc1Br [LFM-A13]; conditions: top dose 16 µM; top dose inferred
Procedure: as §1

MP470 = compound: S=C(NCc1ccc2c(c1)OCO2)N1CCN(c2ncnc3c2oc2ccccc23)CC1 [MP470]; conditions: top dose 20 µM; top dose inferred
Procedure: as §1

KIN001-270 = compound: Cc1ccc(Nc2cc(-c3cccc(N4C(=O)c5ccccc5C4=O)c3)ncn2)cc1NS(C)(=O)=O [KIN001-270]; conditions: top dose 20 µM; top dose inferred
Procedure: as §1

[1] = top dose 1.024 µM, screen: GDSC drug entry 150
[2] = top dose 10 µM, screen: GDSC drug entry 1502

Cell Line | AUC (Bicalutamide; [1]) | IC50 (Bicalutamide; [1]) | AUC (Bicalutamide; [2]) | IC50 (Bicalutamide; [2]) | AUC (T0901317) | IC50 (T0901317) | AUC (TW-37) | IC50 (TW-37) | AUC (Gemcitabine) | IC50 (Gemcitabine) | AUC (AUY922) | IC50 (AUY922) | AUC (LFM-A13) | IC50 (LFM-A13) | AUC (MP470) | IC50 (MP470) | AUC (KIN001-270) | IC50 (KIN001-270)
GAMG (glioma, adherent) | 0.98 | > 1020 nM | 0.963 | > 10000 nM | 0.958 | > 10200 nM | 0.478 | 272 nM | 0.198 | 7.69 nM | 0.423 | 9.76 nM | 0.939 | > 16000 nM | 0.802 | 10400 nM | 0.922 | > 20000 nM
TYK-nu (ovary, adherent) | 0.985 | > 1020 nM | 0.983 | > 10000 nM | 0.985 | > 10200 nM | 0.522 | 360 nM | 0.507 | 66.8 nM | 0.882 | > 256 nM | 0.984 | > 16000 nM | 0.942 | > 20000 nM | 0.958 | > 20000 nM
MKN1 (stomach, adherent) | 0.986 | > 1020 nM | 0.973 | > 10000 nM | 0.975 | > 10200 nM | 0.587 | 549 nM | 0.416 | 37.3 nM | 0.645 | 41.1 nM | 0.982 | > 16000 nM | 0.943 | > 20000 nM | 0.977 | > 20000 nM
201T (lung adenocarcinoma, adherent) | 0.978 | > 1020 nM |  |  | 0.949 | > 10200 nM | 0.657 | 960 nM | 0.818 | 774 nM | 0.411 | 8.56 nM | 0.937 | > 16000 nM | 0.964 | > 20000 nM | 0.981 | > 20000 nM
H2818 (mesothelioma, adherent) | 0.986 | > 1020 nM | 0.966 | > 10000 nM | 0.988 | > 10200 nM | 0.676 | 987 nM | 0.987 | > 1020 nM | 0.989 | > 256 nM | 0.988 | > 16000 nM | 0.951 | > 20000 nM | 0.983 | > 20000 nM
H2803 (mesothelioma, adherent) | 0.985 | > 1020 nM |  |  | 0.985 | > 10200 nM | 0.622 | 717 nM | 0.595 | 122 nM | 0.826 | 190 nM | 0.979 | > 16000 nM | 0.984 | > 20000 nM | 0.964 | > 20000 nM
NCI-H1792 (lung adenocarcinoma, adherent) | 0.99 | > 1020 nM | 0.989 | > 10000 nM | 0.967 | > 10200 nM | 0.64 | 729 nM | 0.569 | 96.8 nM | 0.627 | 34.4 nM | 0.975 | > 16000 nM | 0.971 | > 20000 nM | 0.989 | > 20000 nM
KOSC-2 (head and neck, adherent) | 0.985 | > 1020 nM | 0.905 | > 10000 nM | 0.985 | > 10200 nM | 0.555 | 445 nM | 0.904 | > 1020 nM | 0.667 | 47.8 nM | 0.971 | > 16000 nM | 0.985 | > 20000 nM | 0.985 | > 20000 nM
NCI-H1915 (large cell lung carcinoma, adherent) | 0.988 | > 1020 nM | 0.986 | > 10000 nM | 0.984 | > 10200 nM | 0.399 | 164 nM | 0.923 | > 1020 nM | 0.629 | 36.6 nM | 0.978 | > 16000 nM | 0.982 | > 20000 nM | 0.968 | > 20000 nM
LK-2 (lung squamous cell carcinoma, adherent) | 0.989 | > 1020 nM | 0.984 | > 10000 nM | 0.948 | > 10200 nM | 0.726 | 1310 nM | 0.88 | 962 nM | 0.787 | 105 nM | 0.978 | > 16000 nM | 0.917 | > 20000 nM | 0.983 | > 20000 nM
SW626 (ovary, adherent) | 0.982 | > 1020 nM | 0.98 | > 10000 nM | 0.975 | > 10200 nM | 0.537 | 401 nM | 0.258 | 11.2 nM | 0.555 | 23.2 nM | 0.961 | > 16000 nM | 0.334 | 395 nM | 0.976 | > 20000 nM
PANC-10-05 (pancreas, adherent) | 0.982 | > 1020 nM | 0.962 | > 10000 nM | 0.98 | > 10200 nM | 0.68 | 1160 nM | 0.35 | 21.7 nM | 0.447 | 11 nM | 0.956 | > 16000 nM | 0.953 | > 20000 nM | 0.975 | > 20000 nM
NCI-H522 (lung adenocarcinoma, adherent) | 0.984 | > 1020 nM | 0.954 | > 10000 nM | 0.972 | > 10200 nM | 0.773 | 2310 nM | 0.245 | 10.1 nM | 0.512 | 17.4 nM | 0.964 | > 16000 nM | 0.976 | > 20000 nM | 0.978 | > 20000 nM
MDA-MB-436 (breast, adherent) | 0.983 | > 1020 nM | 0.959 | > 10000 nM | 0.98 | > 10200 nM | 0.548 | 438 nM | 0.813 | 740 nM | 0.786 | 142 nM | 0.957 | > 16000 nM | 0.946 | > 20000 nM | 0.946 | > 20000 nM
A375 (melanoma, adherent) | 0.991 | > 1020 nM | 0.986 | > 10000 nM | 0.991 | > 10200 nM | 0.344 | 126 nM | 0.039 | < 4 nM | 0.456 | 12.4 nM | 0.969 | > 16000 nM | 0.991 | > 20000 nM | 0.991 | > 20000 nM
SW837 (large intestine, adherent) | 0.982 | > 1020 nM | 0.965 | > 10000 nM | 0.983 | > 10200 nM | 0.713 | 1540 nM | 0.405 | 32.4 nM | 0.584 | 29.2 nM | 0.976 | > 16000 nM | 0.904 | > 20000 nM | 0.977 | > 20000 nM
NCI-H727 (lung carcinoid, adherent) | 0.974 | > 1020 nM | 0.949 | > 10000 nM | 0.965 | > 10200 nM | 0.652 | 1090 nM | 0.233 | 6.18 nM | 0.445 |  | 0.909 | > 16000 nM | 0.93 | > 20000 nM | 0.973 | > 20000 nM
A172 (glioma, adherent) | 0.989 | > 1020 nM | 0.987 | > 10000 nM | 0.981 | > 10200 nM | 0.669 | 906 nM | 0.347 | 24.5 nM | 0.649 | 40.6 nM | 0.881 | 15700 nM | 0.93 | > 20000 nM | 0.976 | > 20000 nM
Hep 3B2_1-7 (liver, adherent) | 0.982 | > 1020 nM | 0.952 | > 10000 nM | 0.969 | > 10200 nM | 0.555 | 441 nM | 0.276 | 14.8 nM | 0.453 | 11.9 nM | 0.951 | > 16000 nM | 0.935 | > 20000 nM | 0.961 | > 20000 nM
SW900 (lung squamous cell carcinoma, adherent) | 0.973 | > 1020 nM | 0.958 | > 10000 nM | 0.985 | > 10200 nM | 0.794 | 2730 nM | 0.649 | 178 nM | 0.853 | 254 nM | 0.958 | > 16000 nM | 0.984 | > 20000 nM | 0.985 | > 20000 nM
ML-1 (thyroid, adherent) | 0.984 | > 1020 nM | 0.965 | > 10000 nM | 0.984 | > 10200 nM | 0.782 | 2480 nM | 0.191 | 6.29 nM | 0.469 | 13 nM | 0.884 | > 16000 nM | 0.954 | > 20000 nM | 0.984 | > 20000 nM
HSC-3 (head and neck, adherent) | 0.99 | > 1020 nM | 0.894 | 8990 nM | 0.985 | > 10200 nM | 0.51 | 332 nM | 0.197 | 9.68 nM | 0.347 |  | 0.989 | > 16000 nM | 0.971 | > 20000 nM | 0.986 | > 20000 nM
HO-1-N-1 (head and neck, adherent) | 0.989 | > 1020 nM | 0.963 | > 10000 nM | 0.986 | > 10200 nM | 0.708 | 1140 nM | 0.294 | 17.9 nM | 0.596 | 28.7 nM | 0.947 | > 16000 nM | 0.976 | > 20000 nM | 0.982 | > 20000 nM
SF295 (glioma, adherent) | 0.975 | > 1020 nM | 0.931 | > 10000 nM | 0.971 | > 10200 nM | 0.523 | 363 nM | 0.272 | 13.5 nM | 0.525 | 18.9 nM | 0.945 | > 16000 nM | 0.952 | > 20000 nM | 0.976 | > 20000 nM
SK-MEL-28 (melanoma, adherent) | 0.983 | > 1020 nM | 0.977 | > 10000 nM | 0.978 | > 10200 nM | 0.681 | 992 nM | 0.987 | > 1020 nM | 0.941 | > 256 nM | 0.985 | > 16000 nM | 0.965 | > 20000 nM | 0.973 | > 20000 nM
NCI-H3122 (lung adenocarcinoma, adherent) | 0.987 | > 1020 nM | 0.983 | > 10000 nM | 0.984 | > 10200 nM | 0.604 | 608 nM | 0.139 | 4.5 nM | 0.314 | 4.76 nM | 0.952 | > 16000 nM | 0.639 | 3060 nM | 0.978 | > 20000 nM

The IC50 comes from the fitted curve, where viability falls to half of the control; a fit beyond the top or the lowest dose is shown as a bound at that dose. AUC is the area under the same curve over the 256-fold range up to the top dose, as a fraction; it is 1 without any effect and falls as sensitivity rises. For part of these data: Where the top dose is marked as inferred, it was calculated from the reported fits. For part of these data: An entry number marks a drug with two screens in the source, which often give different values.
